Results as given in patent US11197906B2, “Methods of lowering blink reflex for the treatment of dry eye disease” (Tufts Medical Center, priority 2016, dated 2021).
At least one structure is not confirmed: it was looked up by name or label, or the drawing left a doubt. Residues, ends and D or L forms follow the SMILES beside them.

Key:
CMKLR1 [1] = target: T1, CMKLR1 (Homo sapiens, UniProt Q99788); assay: Luciferase reporter assay of CMKLR1 canonical Gαi signal transduction in HEK293 cells transiently expressing recombinant CMKLR1 (+/- wash, +/- albumin); format: cell-based
T1 construct: expressed in transfected cells; host or cells: HEK293
T1 sequence (Q99788 1-373): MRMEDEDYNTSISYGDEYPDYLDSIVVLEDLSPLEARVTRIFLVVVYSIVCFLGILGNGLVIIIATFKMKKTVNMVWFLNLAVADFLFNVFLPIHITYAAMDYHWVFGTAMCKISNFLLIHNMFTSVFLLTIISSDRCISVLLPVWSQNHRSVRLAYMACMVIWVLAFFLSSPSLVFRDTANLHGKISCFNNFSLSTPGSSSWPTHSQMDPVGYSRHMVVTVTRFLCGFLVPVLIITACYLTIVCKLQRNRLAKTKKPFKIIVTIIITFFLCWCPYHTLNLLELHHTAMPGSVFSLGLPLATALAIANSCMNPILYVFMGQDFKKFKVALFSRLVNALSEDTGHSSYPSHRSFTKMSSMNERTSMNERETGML

CMKLR1 [2] = target: T1, CMKLR1; assay: β-Arrestin recruitment, Link-Light CMKLR1 stable cell line; format: cell-based; conditions: 1 hr treatment
[3] = no wash, no BSA, read-out: EC50 (no wash0)
[4] = with BSA, no wash, read-out: EC50 (BSA) (no wash)
[5] = wash x3, no BSA, read-out: EC50 (wash x3)
[6] = with BSA, wash x3, read-out: EC50 (BSA) (wash x3)

| Structure (SMILES) | EC50 (CMKLR1 [1]; [3]) | EC50 (CMKLR1 [1]; [4]) | EC50 (CMKLR1 [2]) | EC50 (CMKLR1 [1]; [5]) | EC50 (CMKLR1 [1]; [6]) |
| --- | --- | --- | --- | --- | --- |
| CCCC(=O)NCCOCCOCCOCCOCCOCCOCCOCCOCCC(=O)N[C@@H](CCCCN)C(=O)NCC(=O)NCC(=O)N[C@H](Cc1ccc(O)cc1)C(=O)N[C@@H](Cc1ccccc1)C(=O)N[C@@H](CC(C)C)C(=O)N1CCC[C@H]1C(=O)N[C@H](CO)C(=O)N[C@@H](CCC(N)=O)C(=O)N[C@@H](Cc1ccccc1)C(=O)N[C@H](C)C(=O)N1Cc2ccccc2C[C@H]1C(=O)N[C@@H](CO)C(=O)O [C4] (HELM PEPTIDE1{[CCCC(=O)[*:2]].[O=C(CCOCCOCCOCCOCCOCCOCCOCCOCCN[*:1])[*:2]].K.G.G.[dY].F.L.P.[dS].Q.F.[dA].[Tic].S}$$$$V2.0; N-terminus and C-terminus assumed) | 79.3 nM | 11 nM | 223 nM | – | – |
| CCCCCCCCCC(=O)NCCOCCOCCOCCOCCOCCOCCOCCOCCC(=O)N[C@@H](CCCCN)C(=O)NCC(=O)NCC(=O)N[C@H](Cc1ccc(O)cc1)C(=O)N[C@@H](Cc1ccccc1)C(=O)N[C@@H](CC(C)C)C(=O)N1CCC[C@H]1C(=O)N[C@H](CO)C(=O)N[C@@H](CCC(N)=O)C(=O)N[C@@H](Cc1ccccc1)C(=O)N[C@H](C)C(=O)N1Cc2ccccc2C[C@H]1C(=O)N[C@@H](CO)C(=O)O [C10] (HELM PEPTIDE1{[CCCCCCCCCC(=O)[*:2]].[O=C(CCOCCOCCOCCOCCOCCOCCOCCOCCN[*:1])[*:2]].K.G.G.[dY].F.L.P.[dS].Q.F.[dA].[Tic].S}$$$$V2.0; N-terminus and C-terminus assumed) | 17.8 nM | 17.8 nM | 23.1 nM | – | – |
| CCCC/C=C\CCCCCCCC(=O)NCCOCCOCCOCCOCCOCCOCCOCCOCCC(=O)N[C@@H](CCCCN)C(=O)NCC(=O)NCC(=O)N[C@H](Cc1ccc(O)cc1)C(=O)N[C@@H](Cc1ccccc1)C(=O)N[C@@H](CC(C)C)C(=O)N1CCC[C@H]1C(=O)N[C@H](CO)C(=O)N[C@@H](CCC(N)=O)C(=O)N[C@@H](Cc1ccccc1)C(=O)N[C@H](C)C(=O)N1Cc2ccccc2C[C@H]1C(=O)N[C@@H](CO)C(=O)O [C14:1] (HELM PEPTIDE1{[CCCC/C=C\CCCCCCCC(=O)[*:2]].[O=C(CCOCCOCCOCCOCCOCCOCCOCCOCCN[*:1])[*:2]].K.G.G.[dY].F.L.P.[dS].Q.F.[dA].[Tic].S}$$$$V2.0; N-terminus and C-terminus assumed) | 9.3 nM | 26.2 nM | 51.9 nM | 100 nM | 1820 nM |
| CCCCCC/C=C\CCCCCCCC(=O)NCCOCCOCCOCCOCCOCCOCCOCCOCCC(=O)N[C@@H](CCCCN)C(=O)NCC(=O)NCC(=O)N[C@H](Cc1ccc(O)cc1)C(=O)N[C@@H](Cc1ccccc1)C(=O)N[C@@H](CC(C)C)C(=O)N1CCC[C@H]1C(=O)N[C@H](CO)C(=O)N[C@@H](CCC(N)=O)C(=O)N[C@@H](Cc1ccccc1)C(=O)N[C@H](C)C(=O)N1Cc2ccccc2C[C@H]1C(=O)N[C@@H](CO)C(=O)O [C16:1] (HELM PEPTIDE1{[CCCCCC/C=C\CCCCCCCC(=O)[*:2]].[O=C(CCOCCOCCOCCOCCOCCOCCOCCOCCN[*:1])[*:2]].K.G.G.[dY].F.L.P.[dS].Q.F.[dA].[Tic].S}$$$$V2.0; N-terminus and C-terminus assumed) | 12 nM | 29.5 nM | 80.8 nM | 42.2 nM | 3140 nM |
| CCCCCCCCCCCCCCCC(=O)NCCOCCOCCOCCOCCOCCOCCOCCOCCC(=O)N[C@@H](CCCCN)C(=O)NCC(=O)NCC(=O)N[C@H](Cc1ccc(O)cc1)C(=O)N[C@@H](Cc1ccccc1)C(=O)N[C@@H](CC(C)C)C(=O)N1CCC[C@H]1C(=O)N[C@H](CO)C(=O)N[C@@H](CCC(N)=O)C(=O)N[C@@H](Cc1ccccc1)C(=O)N[C@H](C)C(=O)N1Cc2ccccc2C[C@H]1C(=O)N[C@@H](CO)C(=O)O [C16] (HELM PEPTIDE1{[CCCCCCCCCCCCCCCC(=O)[*:2]].[O=C(CCOCCOCCOCCOCCOCCOCCOCCOCCN[*:1])[*:2]].K.G.G.[dY].F.L.P.[dS].Q.F.[dA].[Tic].S}$$$$V2.0; N-terminus and C-terminus assumed) | 2.7 nM | 6.4 nM | 3.23 nM | 18.6 nM | 520 nM |
| CCCCCCCC/C=C\CCCCCCCC(=O)NCCOCCOCCOCCOCCOCCOCCOCCOCCC(=O)N[C@@H](CCCCN)C(=O)NCC(=O)NCC(=O)N[C@H](Cc1ccc(O)cc1)C(=O)N[C@@H](Cc1ccccc1)C(=O)N[C@@H](CC(C)C)C(=O)N1CCC[C@H]1C(=O)N[C@H](CO)C(=O)N[C@@H](CCC(N)=O)C(=O)N[C@@H](Cc1ccccc1)C(=O)N[C@H](C)C(=O)N1Cc2ccccc2C[C@H]1C(=O)N[C@@H](CO)C(=O)O [C18:1] (HELM PEPTIDE1{[CCCCCCCC/C=C\CCCCCCCC(=O)[*:2]].[O=C(CCOCCOCCOCCOCCOCCOCCOCCOCCN[*:1])[*:2]].K.G.G.[dY].F.L.P.[dS].Q.F.[dA].[Tic].S}$$$$V2.0; N-terminus and C-terminus assumed) | 4.7 nM | 12.7 nM | 17.4 nM | 26.4 nM | 2860 nM |
| CC/C=C\C/C=C\C/C=C\CCCCCCCC(=O)NCCOCCOCCOCCOCCOCCOCCOCCOCCC(=O)N[C@@H](CCCCN)C(=O)NCC(=O)NCC(=O)N[C@H](Cc1ccc(O)cc1)C(=O)N[C@@H](Cc1ccccc1)C(=O)N[C@@H](CC(C)C)C(=O)N1CCC[C@H]1C(=O)N[C@H](CO)C(=O)N[C@@H](CCC(N)=O)C(=O)N[C@@H](Cc1ccccc1)C(=O)N[C@H](C)C(=O)N1Cc2ccccc2C[C@H]1C(=O)N[C@@H](CO)C(=O)O [C18:3] (HELM PEPTIDE1{[CC/C=C\C/C=C\C/C=C\CCCCCCCC(=O)[*:2]].[O=C(CCOCCOCCOCCOCCOCCOCCOCCOCCN[*:1])[*:2]].K.G.G.[dY].F.L.P.[dS].Q.F.[dA].[Tic].S}$$$$V2.0; N-terminus and C-terminus assumed) | 45.7 nM | 73.3 nM | 181 nM | 350 nM | – |
